Test results from publication PMC8555761.
These are yes or no findings as the source states them, for the method shown. Binding seen in cells or lysates may run through a third protein. Some results given as binding are weak or reduced against the parent protein; the word gives no strength. For some of these results: Sequences can lack the tags named with a protein. Values belong to the molecule of their own block, whether it stands above or below them.

Sequences of proteins named here, by UniProt entry; tags and fusion partners are left off. A change or cut given only in a name is not applied to a line headed by its entry. A line that says so, or that is headed by a name, gives the form on record, which may keep a tag or linker. Residues count along the entry.
UniProt Q07817: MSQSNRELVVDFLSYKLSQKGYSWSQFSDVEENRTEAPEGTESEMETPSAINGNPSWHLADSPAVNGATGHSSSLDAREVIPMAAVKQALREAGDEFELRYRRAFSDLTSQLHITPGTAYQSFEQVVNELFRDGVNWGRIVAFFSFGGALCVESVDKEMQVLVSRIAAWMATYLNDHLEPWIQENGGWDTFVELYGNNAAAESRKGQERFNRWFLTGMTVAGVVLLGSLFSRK
Bcl-xL ΔC7 deletion mutant-YFP: residues 1-226 of Q07817
Bcl-xL ΔC deletion mutant-YFP: residues 1-211 of Q07817
Bcl-xL M2 (mutant)-YFP (Q07817-1, form named): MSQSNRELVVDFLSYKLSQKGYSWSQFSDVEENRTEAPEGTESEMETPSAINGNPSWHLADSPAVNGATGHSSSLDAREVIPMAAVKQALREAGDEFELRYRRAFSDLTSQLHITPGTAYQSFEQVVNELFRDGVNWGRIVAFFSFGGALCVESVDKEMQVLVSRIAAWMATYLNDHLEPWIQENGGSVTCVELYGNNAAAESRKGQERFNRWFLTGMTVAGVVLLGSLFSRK
UniProt O00429: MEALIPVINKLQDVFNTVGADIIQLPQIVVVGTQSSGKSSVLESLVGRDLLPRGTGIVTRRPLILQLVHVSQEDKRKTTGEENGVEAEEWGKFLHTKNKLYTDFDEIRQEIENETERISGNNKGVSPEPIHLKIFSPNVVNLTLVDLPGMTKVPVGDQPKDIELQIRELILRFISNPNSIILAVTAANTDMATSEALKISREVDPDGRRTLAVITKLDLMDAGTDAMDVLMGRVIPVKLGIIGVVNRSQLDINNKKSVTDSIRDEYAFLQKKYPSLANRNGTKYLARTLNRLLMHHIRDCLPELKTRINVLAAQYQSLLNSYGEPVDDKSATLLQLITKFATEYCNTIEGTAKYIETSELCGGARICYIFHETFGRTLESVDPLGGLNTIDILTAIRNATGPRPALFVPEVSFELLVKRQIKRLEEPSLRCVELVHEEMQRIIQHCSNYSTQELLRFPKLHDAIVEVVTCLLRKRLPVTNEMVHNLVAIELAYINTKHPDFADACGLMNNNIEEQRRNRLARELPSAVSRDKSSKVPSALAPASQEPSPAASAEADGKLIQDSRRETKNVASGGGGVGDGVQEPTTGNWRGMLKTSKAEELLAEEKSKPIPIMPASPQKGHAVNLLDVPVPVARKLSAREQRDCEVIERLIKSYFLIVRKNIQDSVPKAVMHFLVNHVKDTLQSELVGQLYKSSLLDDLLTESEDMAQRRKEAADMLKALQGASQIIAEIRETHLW

Tests used:
Bcl-xL M2 (mutant)-YFP = Bcl-xL M2 (mutant)-YFP (UniProt Q07817); assay: co-IP; YFP-Trap (GFP-Trap-A beads) on whole cell lysates of transfected HEK293 cells, bound proteins immunoblotted; also with SENP3 overexpression or SENP3 siRNA, Mff siRNA or Flag-Mff overexpression
[1] = biological target: endogenous Bcl-xL (human (endogenous in HEK293)) (UniProt Q07817); assay: co-IP; endogenous proteins: whole cell lysates of HEK293 cells incubated overnight with an Mff, Bcl-xL or Drp1 antibody pre-conjugated to protein-A beads; cells untreated, after OGD 2 h, after OGD plus 24 h reoxygenation, with SENP3 siRNA
RFP-Mff TM = biological target: T1, RFP-Mff TM (UniProt Q9GZY8); assay: co-IP; RFP-Trap Agarose beads on whole cell lysates of transfected HEK293 cells, immunoblot
T1 sequence: VMYSITVAFWLLNSWLWF

YFP-Drp1 WT = YFP-Drp1 WT (UniProt O00429); assay: co-IP; YFP-Trap (GFP-Trap-A beads) on whole cell lysates of transfected HEK293 cells, bound proteins immunoblotted; also with SENP3 overexpression or SENP3 siRNA, Mff siRNA or Flag-Mff overexpression
GST-Mff ΔRR = biological target: T2, GST-Mff ΔRR (UniProt Q9GZY8); assay: pull-down; GST-pulldown (glutathione-sepharose 4B beads) on whole cell lysates of HEK293 cells expressing GST-tagged Mff, endogenous partner immunoblotted; also with Bcl-xL siRNA or Drp1 siRNA
T2 sequence: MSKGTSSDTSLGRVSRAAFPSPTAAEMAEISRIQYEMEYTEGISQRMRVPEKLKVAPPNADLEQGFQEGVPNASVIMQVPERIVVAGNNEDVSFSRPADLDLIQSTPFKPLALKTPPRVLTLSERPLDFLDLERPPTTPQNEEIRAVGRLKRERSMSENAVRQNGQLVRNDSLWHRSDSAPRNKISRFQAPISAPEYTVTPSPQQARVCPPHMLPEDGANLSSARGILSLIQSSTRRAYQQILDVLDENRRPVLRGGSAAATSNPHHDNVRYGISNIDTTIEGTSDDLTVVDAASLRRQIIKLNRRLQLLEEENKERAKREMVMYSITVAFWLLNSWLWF

[2] = biological target: T3, GST-Mff ΔC deletion mutant (UniProt Q9GZY8); assay: as above
T3 sequence: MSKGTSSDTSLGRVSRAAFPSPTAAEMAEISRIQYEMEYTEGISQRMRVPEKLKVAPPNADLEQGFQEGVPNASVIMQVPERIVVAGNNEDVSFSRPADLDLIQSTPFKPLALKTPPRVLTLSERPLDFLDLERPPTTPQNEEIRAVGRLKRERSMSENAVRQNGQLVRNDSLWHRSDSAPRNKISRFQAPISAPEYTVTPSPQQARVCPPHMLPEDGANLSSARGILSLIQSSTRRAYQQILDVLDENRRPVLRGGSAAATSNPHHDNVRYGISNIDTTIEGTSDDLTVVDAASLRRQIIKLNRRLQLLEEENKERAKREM

GST-Mff ΔN50 = biological target: T4, GST-Mff ΔN50 (UniProt Q9GZY8); assay: as above
T4 sequence: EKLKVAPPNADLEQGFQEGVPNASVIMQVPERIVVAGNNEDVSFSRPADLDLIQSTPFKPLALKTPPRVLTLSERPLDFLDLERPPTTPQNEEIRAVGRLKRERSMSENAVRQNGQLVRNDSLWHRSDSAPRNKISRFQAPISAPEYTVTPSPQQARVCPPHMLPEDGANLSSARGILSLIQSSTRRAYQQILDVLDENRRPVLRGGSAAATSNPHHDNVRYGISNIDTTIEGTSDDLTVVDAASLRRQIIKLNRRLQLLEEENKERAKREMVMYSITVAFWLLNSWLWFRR

GST-Mff = biological target: T5, GST-Mff (UniProt Q9GZY8); assay: as above
T5 sequence: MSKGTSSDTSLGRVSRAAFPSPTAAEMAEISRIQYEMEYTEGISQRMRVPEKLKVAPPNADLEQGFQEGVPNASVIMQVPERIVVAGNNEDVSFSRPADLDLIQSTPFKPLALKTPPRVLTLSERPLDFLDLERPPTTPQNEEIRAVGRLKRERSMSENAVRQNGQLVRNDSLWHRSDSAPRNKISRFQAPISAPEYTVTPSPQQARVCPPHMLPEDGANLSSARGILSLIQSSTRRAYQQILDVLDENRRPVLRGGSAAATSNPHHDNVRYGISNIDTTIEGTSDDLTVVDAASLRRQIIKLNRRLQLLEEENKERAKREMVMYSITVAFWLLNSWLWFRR

[3] = biological target: endogenous Drp1 (human (endogenous in HEK293)) (UniProt O00429); assay: co-IP; endogenous proteins: whole cell lysates of HEK293 cells incubated overnight with an Mff, Bcl-xL or Drp1 antibody pre-conjugated to protein-A beads; cells untreated, after OGD 2 h, after OGD plus 24 h reoxygenation, with SENP3 siRNA
[4] = biological target: T6, endogenous Mff (human (endogenous in HEK293)) (UniProt Q9GZY8); assay: as above
T6 sequence: T5 sequence

Bcl-xL-YFP = Bcl-xL-YFP (UniProt Q07817); assay: co-IP; YFP-Trap (GFP-Trap-A beads) on whole cell lysates of transfected HEK293 cells, bound proteins immunoblotted; also with SENP3 overexpression or SENP3 siRNA, Mff siRNA or Flag-Mff overexpression
[5] = biological target: Bcl-xL ΔC deletion mutant-YFP (UniProt Q07817); assay: as above
YFP-Bcl-xL TM = YFP-Bcl-xL TM (UniProt Q07817); assay: as above
[6] = biological target: Bcl-xL ΔC7 deletion mutant-YFP (UniProt Q07817); assay: as above

Molecule: YFP-Bcl-xL TM (from UniProt Q07817-1 210-226) (domain or fragment)
binding (RFP-Mff TM): binds

Molecule: endogenous Bcl-xL (from UniProt Q07817-1 1-233)
binding (YFP-Drp1 WT): binds
binding (GST-Mff ΔRR): binds
binding [2]: no binding
binding (GST-Mff ΔN50): binds
binding (GST-Mff): binds
binding (RFP-Mff TM): binds
binding [3]: binds
binding [4]: binds

B1: endogenous Mff (protein, UniProt Q9GZY8 1-342)
chain: T5 sequence
binding (Bcl-xL-YFP): binds
binding [5]: no binding
binding (YFP-Bcl-xL TM): binds
binding [6]: binds

The remaining lines, values ahead:

binding (Bcl-xL M2 (mutant)-YFP): no binding
binding [1]: binds
Molecule: endogenous Drp1 (from UniProt O00429 1-736)

binding (YFP-Bcl-xL TM): binds
B2: RFP-Mff TM (domain or fragment, UniProt Q9GZY8 323-340)
chain: VMYSITVAFWLLNSWLWF
